In the supplement of paper PMC6746778:
This is one part of the list. Many values rest on one well or one pass, so single values are uncertain.

Assays:
Experiment in all cases: proliferation Z-score within cell line (SRB, relative to all inhibitors screened on that line); triple-negative breast cancer lines and a kinase inhibitor library; SRB is the sulforhodamine B protein stain; higher = less growth inhibition (more resistant)
Details in all cases: concentration: 1 µM; 4 days
Bt20 = system: Bt20
Bt549 = system: Bt549
HCC1143 = system: HCC1143
HCC1806 = system: HCC1806
HCC1937 = system: HCC1937
HCC38 = system: HCC38
HCC70 = system: HCC70
Hs578T = system: Hs578T
MDA-MB-231 = system: MDA-MB-231
MDA-MB-435s = system: MDA-MB-435s
MDA-MB-436 = system: MDA-MB-436
MDA-MB-453 = system: MDA-MB-453
MDA-MB-468 = system: MDA-MB-468
SKBR7 = system: SKBR7
SUM1315MO2 = system: SUM1315MO2
SUM149PT = system: SUM149PT
SUM159PT = system: SUM159PT
SUM185PE = system: SUM185PE
SUM229PE = system: SUM229PE
SUM52PE = system: SUM52PE
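Note: Single-dose primary screen of a 378-member kinase inhibitor library in 96-well plates, with growth read as absorbance of protein-bound SRB dye after TCA fixation.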

Compound	proliferation Z-score within cell line (Bt20)	proliferation Z-score within cell line (Bt549)	proliferation Z-score within cell line (HCC1143)	proliferation Z-score within cell line (HCC1806)	proliferation Z-score within cell line (HCC1937)	proliferation Z-score within cell line (HCC38)	proliferation Z-score within cell line (HCC70)	proliferation Z-score within cell line (Hs578T)	proliferation Z-score within cell line (MDA-MB-231)	proliferation Z-score within cell line (MDA-MB-435s)	proliferation Z-score within cell line (MDA-MB-436)	proliferation Z-score within cell line (MDA-MB-453)	proliferation Z-score within cell line (MDA-MB-468)	proliferation Z-score within cell line (SKBR7)	proliferation Z-score within cell line (SUM1315MO2)	proliferation Z-score within cell line (SUM149PT)	proliferation Z-score within cell line (SUM159PT)	proliferation Z-score within cell line (SUM185PE)	proliferation Z-score within cell line (SUM229PE)	proliferation Z-score within cell line (SUM52PE)
Cc1ccccc1CN1C2=NCCN2C(=O)C2=C1CCN(Cc1ccccc1)C2	0.191	0.741	0.509	0.585	0.489	0.46	0.462	0.527	0.386	0.632	0.324	0.81	0.556	0.0606	0.183	0.544	0.418	0.0384	0.273	0.19
CS(=O)(=O)c1ccc(-c2cnc(N)c(C(=O)Nc3ccccc3)n2)cc1	0.935	0.259	0.515	0.411	0.657	0.417	0.554	0.529	0.761	0.734	0.713	0.373	0.321	0.457	1.04	0.966	0.399	0.57	0.849	0.974
O=c1cc(N2CCOCC2)oc2c(-c3cccc4c3sc3ccccc34)cccc12	0.656	0.334	0.567	0.325	-0.307	0.512	0.572	0.293	0.158	0.768	0.499	1	0.262	0.428	0.536	0.876	0.695	0.898	-0.0392	0.307
CCS(=O)(=O)Nc1ccc2[nH]c(O)c(C(=Nc3ccc(CN4CCCCC4)cc3)c3ccccc3)c2c1 [Hesperadin]	-0.249	-0.734	-0.238	-1.8	-1.36	-0.79	-2.07	-0.912	-1.9	-1.75	-0.782	-0.505	-1.21	-1.41	-1.44	-1.4	-1.2	-1.48	-1.06	-1.42
CC(C)(O)CC(=O)NCCn1ccc2ncnc(Nc3ccc(Oc4cccc(C(F)(F)F)c4)c(Cl)c3)c21	0.279	0.785	0.415	-0.508	0.263	0.561	0.76	0.681	0.786	0.976	0.643	-0.313	0.0357	0.844	0.745	0.55	0.602	0.502	0.884	0.692
COc1cccc2cc(-c3nc([C@H]4CC[C@H](C(=O)O)CC4)n4ncnc(N)c34)[nH]c12	-1.19	-1.23	-0.901	-0.715	-0.906	-0.376	-1.5	-1.06	-0.555	-0.68	-1.03	-1.43	-0.417	-0.734	-1.35	-0.871	-0.498	-1.32	-0.428	-1.1
Cc1ccc(Nc2nccc(N(C)c3ccc4c(C)n(C)nc4c3)n2)cc1S(N)(=O)=O [Pazopanib]	0.042	0.552	0.281	0.578	0.492	0.405	0.181	0.678	0.0886	0.303	0.192	0.616	0.435	0.328	-0.983	0.112	0.457	-0.867	0.674	-1.8
CCCCOc1c(C(=O)c2c(F)cc(C)cc2F)c[nH]c2nncc1-2	-0.302	0.447	0.571	0.23	0.441	0.589	0.439	0.631	1.02	0.788	0.169	0.313	0.535	-0.235	0.816	0.0873	0.511	0.0564	0.149	0.476
O=C1C(c2c(O)[nH]c3ccccc23)=Nc2ccccc21 [Indirubin]	0.674	0.471	0.433	0.759	0.632	0.0834	0.608	0.277	0.327	0.808	0.403	0.498	0.134	0.162	0.551	0.749	0.337	0.0875	0.967	0.643
Cc1c(NC(=O)c2ccc(C(C)(C)C)cc2)cccc1-c1cn(C)c(=O)c(Nc2ccc(C(=O)N3CCOCC3)cc2)n1	0.297	0.378	0.716	0.618	0.827	0.544	0.556	0.446	0.48	0.618	0.258	0.777	0.723	0.304	-0.124	0.629	0.574	0.237	0.701	0.0607
CC(=O)c1c(C)c2cnc(Nc3ccc(N4CCNCC4)cn3)nc2n(C2CCCC2)c1=O	-0.0671	0.229	-1.85	-1.17	-0.447	0.315	-0.366	-0.884	-1.54	-0.388	-0.56	-1.48	0.746	-0.764	-0.181	-1.24	-0.698	-0.263	-0.231	-0.305
O=S(=O)(NCCNCC=Cc1ccc(Br)cc1)c1cccc2cnccc12	0.937	0.582	-2.14	0.501	-2.56	0.606	-0.751	0.712	0.655	0.921	-2.32	0.917	0.819	-0.0696	1.2	0.458	-3.56	1.1	0.569	1.63
